Values joined by “and” are separate entries in the source; they are usually repeats but may differ in a detail not shown here. Identical values can stand only once. Out of some 420,000 compounds screened, about 50,000 (12%) were called active. This list was built around the results that the source calls inconclusive (neither active nor inactive); the mix of calls is not that of the screen. The call rests on the fitted dose curve; in most records, active means well fitted inhibition curve with a large enough effect; inconclusive means small, poorly fitted or top-dose-only effect; inactive means flat fitted curve, though single readings scatter. Potencies of inconclusive entries are left out as doubtful fits.
Assay: qHTS for Inhibitors of human tyrosyl-DNA phosphodiesterase 1 (TDP1): qHTS in cells in presence of CPT; further: nearly all actives have a fitted effect of over 55% in size
Conditions: chicken DT40 Tdp1-/-;hTDP1 cells + 20 nM CPT, ATP luminescence, 48 h; activity change, negative = growth inhibition: at 46.2 µM (top of the series)
Summary of the method: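 Chicken DT40 Tdp1-/- cells complemented with human TDP1, 400 cells/well, exposed to compounds plus 20 nM camptothecin for at least 48 h at 37 C; viability read as ATP content by CellTiter-Glo luminescence.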
In the case of `CCOC(=O)[C@]12CCCC=C1N(Cc1ccc3c(c1)OCO3)C(=O)[C@H](CC(=O)N1CCC(c3ccccc3)CC1)C2`, the Potency is reported as active: 18.4 µM.
With `O=C(Nc1csnn1)c1csnn1` the “activity change, negative = growth inhibition” value was inactive: -1.39%.
With `O=c1oc2ccccc2cc1-c1nc2c(s1)CCc1ccccc1-2` the Potency was inconclusive [inhibitor, single point].
In the case of `CCN1CCCC1CNC(=O)c1cnn(-c2nccc(-c3ccco3)n2)c1C1CC1` (stereo not drawn), the “activity change, negative = growth inhibition” value is reported as inactive: 4.75%.
In the case of `CCOC(=O)C1(CCCc2ccccc2)CCN(C(=O)c2cc(C)nc(C)n2)CC1`, the Potency is reported as inconclusive [inhibitor, partial curve].
With `COc1cccc(-c2nc(NCC3CCCO3)c3ccccc3n2)c1O` (stereo not drawn) the Potency was inconclusive [inhibitor, single point].
With `Cc1cccc(C(=O)N[C@H](C(=O)OCc2cc(=O)n3c(n2)sc2ccccc23)C(C)C)c1` the Potency was inconclusive [inhibitor, single point].
With `Cc1cc(C)cc(NC(=O)CSc2cc(C)[nH]c(=O)n2)c1` the activity change, negative = growth inhibition was inconclusive: -32.6% [inhibitor].
For `COc1cc(CN(C(=O)COc2ccc(C)cc2)c2ccccn2)cc(OC)c1OC`, the Potency was active: 8.2 µM.
With `NC(=O)CN1C(=O)C(O)(CC(=O)c2ccccc2O)c2ccccc21` (stereo not drawn) the “activity change, negative = growth inhibition” value was inactive: -11.2%.
In the case of `O=C(Nc1nc2ccccc2c(=O)s1)c1ccc(F)cc1Cl`, the Potency is reported as inconclusive [inhibitor, partial curve, poor fit].
For `CNCCC=C1c2ccccc2CCc2ccccc21`, the Potency was active: 20.6 µM and active: 9.2 µM.
In the case of `CN(c1ccc(O)cc1)c1nc(-c2ccccc2)cs1`, the Potency is reported as inconclusive [inhibitor, partial curve].
With `O=S(Cc1ccc(Br)cc1)Cc1nnc(SCc2c(F)cccc2Cl)n1-c1ccccc1` (stereo not drawn) the Potency was active: 14.6 µM.
With `CCCCn1c(SCC(=O)Nc2cc(C)on2)nc2ccccc2c1=O` the activity change, negative = growth inhibition was inconclusive: -33.1% [inhibitor].
With `CC(C)(C)CC(C)(C)N1CNC(=S)NC1` the Potency was inconclusive [inhibitor, single point].
For `COC(=O)c1ccc(C2=NOC(C)(c3sc(-c4ccc(Cl)cc4)nc3C)C2)cc1` (stereo not drawn), the Potency was inconclusive [inhibitor, partial curve].
In the case of `CCCc1c(NC(=O)Nc2ccc(F)cc2)cnn1-c1ccc(Cl)cc1`, the Potency is reported as inconclusive [inhibitor, single point].
In the case of `CCCCN(C=O)c1c(CC)nc2c(OCc3cc(Cl)cc(Cl)c3)cccn12`, the Potency is reported as inconclusive [inhibitor, single point].
With `CCN(c1ccc(NC(=O)c2cccc(S(=O)(=O)N3CCN(C)CC3)c2)cc1)C(C)C` the Potency was inconclusive [inhibitor, partial curve, poor fit].
For `COc1ccc(C(=O)O)cc1S(=O)(=O)N(C)C`, the “activity change, negative = growth inhibition” value was inactive: 14.3%.
In the case of `COc1ccc(-c2nc(Cn3c(SCc4ccccc4F)nc4ccncc43)c(C)o2)cc1`, the Potency is reported as inconclusive [inhibitor, single point].
For `CCN1CCN(CCNC(=O)c2ccc(/C=C3\Sc4ccccc4N(Cc4ccccc4F)C3=O)cc2)CC1`, the Potency was inconclusive [inhibitor, single point].
With `O=C(Nc1ccsc1C(=O)NC1CCCCC1)c1ccc(F)cc1` the Potency was inconclusive [inhibitor, partial curve].
In the case of `CCN(CC)CCNC(=O)c1ccc(CS(=O)(=O)c2ccc(Br)cc2)o1`, the Potency is reported as inconclusive [inhibitor, partial curve, poor fit].
With `Cc1cccc(OCCCSc2nc3ccc(C)cc3[nH]2)c1` the Potency was inconclusive [inhibitor, partial curve].
For `CC1CCN(S(=O)(=O)c2cnc[nH]2)CC1`, the “activity change, negative = growth inhibition” value was inactive: 10.9%.
With `Cc1ccc(S(=O)(=O)NCCCNS(=O)(=O)c2ccc(C)cc2)cc1` the Potency was inconclusive [inhibitor, single point].
For `CCCCNC(=O)c1nn(-c2ccc(CC)cc2)nc1CO`, the Potency was inconclusive [inhibitor, single point].
For `CN(C)C(=O)c1cccc(-c2cccc(-c3nc(C(=O)NCc4ccccc4)cc4c3[C@@H](CCO)N(S(=O)C(C)(C)C)C4)c2)c1` (stereo partly drawn), the Potency was active: 18.4 µM.
For `O=C(O)c1cccc(-c2csc(C(O)c3ccc(F)c(F)c3)n2)c1` (stereo not drawn), the “activity change, negative = growth inhibition” value was inactive: 0.847%.
In the case of `COc1ccc(COC(=O)NC(C(=O)O)c2ccccc2)cc1` (stereo not drawn), the “activity change, negative = growth inhibition” value is reported as inactive: -17%.
In the case of `CCC(NC(=O)c1cc(COc2ccc(F)cc2Cl)on1)c1ccncc1` (stereo not drawn), the Potency is reported as active: 23.1 µM.
With `Nc1ncnc2c1ncn2[C@@H]1O[C@H](C(=O)N2CCN(c3ccc(Cl)cn3)CC2)[C@@H](O)[C@H]1O` the “activity change, negative = growth inhibition” value was inactive: -25.6%.
With `CCCCCCCCN1C(=O)[C@H](CC(=O)NCCCOC)C[C@@]2(C(=O)OCC)CCCC=C12` the Potency was active: 23.1 µM.
For `O=C(Nc1ccccc1)N(Cc1ccccc1)Cc1ccccc1`, the Potency was inconclusive [inhibitor, partial curve].
For `CC(C)(C)OC(=O)NCCCCCNC(=O)c1nc[nH]c1C(=O)NCC(=O)OCc1ccccc1`, the Potency was inconclusive [inhibitor, single point].
In the case of `CCOC(=O)C1C(C(=O)OC)=C(c2ccc(OC)cc2)c2ccccc2N1S(=O)(=O)C(F)(F)F` (stereo not drawn), the Potency is reported as inconclusive [inhibitor, single point].
For `CN1C(=O)N(C)c2ccc(C=O)c3cccc1c23`, the Potency was inconclusive [inhibitor, single point].
For `Cc1ccc(C(=O)NC(=S)NNC(=O)COc2ccccc2C)cc1`, the Potency was inconclusive [inhibitor, single point].
In the case of `CCc1ccccc1NC(=O)Cn1nnc(C(=O)NCc2ccccc2Cl)c1N`, the Potency is reported as inconclusive [inhibitor, single point].
For `COc1ccc(Nc2nc(=O)c3cc([N+](=O)[O-])ccc3s2)cc1`, the “activity change, negative = growth inhibition” value was inactive: 0.613%.
For `COc1cc(C#N)ccc1OCC(=O)N1CCc2ccccc2C1`, the “activity change, negative = growth inhibition” value was inactive: 11.6%.
In the case of `CCCn1c(=O)sc2cc(NC(=O)COc3ccc(Cl)cc3)ccc21`, the Potency is reported as inconclusive [inhibitor, single point].
With `Cc1cccc(NC(=O)CN2C(=O)S/C(=C\c3ccc(O)c([N+](=O)[O-])c3)C2=O)c1` the “activity change, negative = growth inhibition” value was inactive: 0.449%.
With `Cc1cc(NC(=O)c2ccc(F)cc2)n(-c2ccccn2)n1` the Potency was inconclusive [inhibitor, single point].
In the case of `COc1ccc(S(=O)(=O)N2CCCC(C(=O)NCC3CCCO3)C2)cc1C` (stereo not drawn), the Potency is reported as inconclusive [inhibitor, single point].
With `CN1CCOc2cc(S(=O)(=O)Nc3ccc(F)cc3)ccc21` the Potency was inconclusive [inhibitor, single point].
For `CCN(CC)c1ccc(S(=O)(=O)N2CCOCC2)cc1NC(=O)Nc1ccccc1`, the Potency was inconclusive [inhibitor, single point].
In the case of `COc1cccc(CN(C(=O)c2oc3cc(C)ccc3c2C)C2CCS(=O)(=O)C2)c1` (stereo not drawn), the Potency is reported as inconclusive [inhibitor, single point].
With `O=Cc1cn(CC(=O)Nc2ccc3c(c2)OCO3)c2ccccc12` the Potency was inconclusive [inhibitor, partial curve].
With `N#Cc1ccc2ccn(CC(=O)NC3CCCCC3)c2c1` the “activity change, negative = growth inhibition” value was inactive: 1.66%.
With `COc1cc2c(cc1OC)C1(CCCC1)C(N)=C2C#N` the Potency was inconclusive [inhibitor, single point].
With `COc1ccc(-c2nc3c4ccccc4n(CC(=O)N4CCN(c5ccccc5OC)CC4)c(=O)n3n2)cc1` the Potency was inconclusive [inhibitor, full curve].
With `Cc1ncc(-c2ccc(F)cc2)c(C2CCCN(Cc3cccc(O)c3)C2)n1` (stereo not drawn) the Potency was inconclusive [inhibitor, single point].
In the case of `CN(C(=O)c1cc(COc2ccc(F)c(F)c2)on1)C1CCOC1` (stereo not drawn), the Potency is reported as inconclusive [inhibitor, single point].
In the case of `CCCc1nc2c(s1)CCc1onc(-c3ccc(OC)cc3)c1-2`, the Potency is reported as inconclusive [inhibitor, single point].
In the case of `CC1(C(=O)NCc2cccc(Cl)c2)Cc2c(-c3cccc(C(N)=O)c3)ccnc2O1` (stereo not drawn), the Potency is reported as inconclusive [inhibitor, single point].
With `O=C(OCc1ccccc1)N1CCN(C(c2ccnc3ccccc23)c2nnnn2-c2ccc3c(c2)OCCO3)CC1` (stereo not drawn) the Potency was active: 23.1 µM.
In the case of `O=C1CCC(=O)N1c1ccc(S(=O)(=O)Nc2cccc(Br)c2)cc1`, the “activity change, negative = growth inhibition” value is reported as inactive: 1.47%.
With `CCOc1ccc(Nc2ccc(S(=O)(=O)N3CCOCC3)cc2[N+](=O)[O-])cc1` the Potency was inconclusive [inhibitor, single point].
With `CCCCN(C)c1c(C)nc2ccc(C(=O)Nc3cc(-c4ccccc4)ccc3OC)cn12` the Potency was active: 13 µM.
With `Cc1ccccc1S(=O)(=O)N1CCN(c2nc(-c3cccs3)nc3ccccc23)CC1` the Potency was inconclusive [inhibitor, single point].
With `CN(CC(=O)Nc1ccc(Cl)cc1)C(=O)c1cc(-c2cccs2)nn1-c1ccccc1` the Potency was inconclusive [inhibitor, single point].
With `COc1cccc(-n2c(=O)c3c4c(sc3n(Cc3ccc(C)cc3)c2=O)CCCC4)c1` the “activity change, negative = growth inhibition” value was inactive: -3.5%.
For `COc1cccc(C(=O)NCCNc2nc3cc(C)cc(C)c3cc2C#N)c1`, the Potency was inconclusive [inhibitor, single point].
In the case of `CC(=O)N(Cc1ccc(F)cc1)c1cccc(C)c1C`, the Potency is reported as inconclusive [inhibitor, single point].
For `COc1ccccc1N1CCN(C(=O)CCCNC(=O)Cn2cnc3sc(C)c(C)c3c2=O)CC1`, the “activity change, negative = growth inhibition” value was inactive: -23.4%.

From PubChem BioAssay AID686979 (National Center for Advancing Translational Sciences (NCATS), 2013)
On the % scale 0 is the no-effect control and ±100 the full control effect; potency means the concentration at half of the fitted maximal effect; tags describe the fitted curve by direction and shape.
